Measured values taken from the supplement of paper PMC12423691.
The list shows a part of the results. Binding of human transcription factors and regulators to the viral nucleoprotein by AlphaScreen, crude cell-free proteins, amounts not normalised, one pass. Fold of the Venus control; higher = more signal. No active / inactive call. Single-pass screen; sequences are the whole Swiss-Prot entries looked up by name.

B1: FOXA3, P55318 (protein)
chain: MLGSVKMEAHDLAEWSYYPEAGEVYSPVTPVPTMAPLNSYMTLNPLSSPYPPGGLPASPLPSGPLAPPAPAAPLGPTFPGLGVSGGSSSSGYGAPGPGLVHGKEMPKGYRRPLAHAKPPYSYISLITMAIQQAPGKMLTLSEIYQWIMDLFPYYRENQQRWQNSIRHSLSFNDCFVKVARSPDKPGKGSYWALHPSSGNMFENGCYLRRQKRFKLEEKVKKGGSGAATTTRNGTGSAASTTTPAATVTSPPQPPPPAPEPEAQGGEDVGALDCGSPASSTPYFTGLELPGELKLDAPYNFNHPFSINNLMSEQTPAPPKLDVGFGGYGAEGGEPGVYYQGLYSRSLLNAS
B2: THRA, P10827 (protein)
chain: MEQKPSKVECGSDPEENSARSPDGKRKRKNGQCSLKTSMSGYIPSYLDKDEQCVVCGDKATGYHYRCITCEGCKGFFRRTIQKNLHPTYSCKYDSCCVIDKITRNQCQLCRFKKCIAVGMAMDLVLDDSKRVAKRKLIEQNRERRRKEEMIRSLQQRPEPTPEEWDLIHIATEAHRSTNAQGSHWKQRRKFLPDDIGQSPIVSMPDGDKVDLEAFSEFTKIITPAITRVVDFAKKLPMFSELPCEDQIILLKGCCMEIMSLRAAVRYDPESDTLTLSGEMAVKREQLKNGGLGVVSDAIFELGKSLSAFNLDDTEVALLQAVLLMSTDRSGLLCVDKIEKSQEAYLLAFEHYVNHRKHNIPHFWPKLLMKEREVQSSILYKGAAAEGRPGGSLGVHPEGQQLLGMHVVQGPQVRQLEQQLGEAGSLQGPVLQHQSPKSPQQRLLELLHRSGILHARAVCGEDDSSEADSPSSSEEEPEVCEDLAGNAASP
B3: FOSL1, P15407 (protein)
chain: MFRDFGEPGPSSGNGGGYGGPAQPPAAAQAAQQKFHLVPSINTMSGSQELQWMVQPHFLGPSSYPRPLTYPQYSPPQPRPGVIRALGPPPGVRRRPCEQISPEEEERRRVRRERNKLAAAKCRNRRKELTDFLQAETDKLEDEKSGLQREIEELQKQKERLELVLEAHRPICKIPEGAKEGDTGSTSGTSSPPAPCRPVPCISLSPGPVLEPEALHTPTLMTTPSLTPFTPSLVFTYPSTPEPCASAHRKSSSSSGDPSSDPLGSPTLLAL
B4: ZNF213, O14771 (protein)
chain: MAAPLEAQDQAPGEGEGLLIVKVEDSSWEQESAQHEDGRDSEACRQRFRQFCYGDVHGPHEAFSQLWELCCRWLRPELRTKEQILELLVLEQFLTVLPGEIQGWVREQHPGSGEEAVALVEDLQKQPVKAWRQDVPSEEAEPEAAGRGSQATGPPPTVGARRRPSVPQEQHSHSAQPPALLKEGRPGETTDTCFVSGVHGPVALGDIPFYFSREEWGTLDPAQRDLFWDIKRENSRNTTLGFGLKGQSEKSLLQEMVPVVPGQTGSDVTVSWSPEEAEAWESENRPRAALGPVVGARRGRPPTRRRQFRDLAAEKPHSCGQCGKRFRWGSDLARHQRTHTGEKPHKCPECDKSFRSSSDLVRHQGVHTGEKPFSCSECGKSFSRSAYLADHQRIHTGEKPFGCSDCGKSFSLRSYLLDHRRVHTGERPFGCGECDKSFKQRAHLIAHQSLHAKMAQPVG
B5: ETS2, P15036 (protein)
chain: MNDFGIKNMDQVAPVANSYRGTLKRQPAFDTFDGSLFAVFPSLNEEQTLQEVPTGLDSISHDSANCELPLLTPCSKAVMSQALKATFSGFKKEQRRLGIPKNPWLWSEQQVCQWLLWATNEFSLVNVNLQRFGMNGQMLCNLGKERFLELAPDFVGDILWEHLEQMIKENQEKTEDQYEENSHLTSVPHWINSNTLGFGTEQAPYGMQTQNYPKGGLLDSMCPASTPSVLSSEQEFQMFPKSRLSSVSVTYCSVSQDFPGSNLNLLTNNSGTPKDHDSPENGADSFESSDSLLQSWNSQSSLLDVQRVPSFESFEDDCSQSLCLNKPTMSFKDYIQERSDPVEQGKPVIPAAVLAGFTGSGPIQLWQFLLELLSDKSCQSFISWTGDGWEFKLADPDEVARRWGKRKNKPKMNYEKLSRGLRYYYDKNIIHKTSGKRYVYRFVCDLQNLLGFTPEELHAILGVQPDTED
B6: HNF4G, Q14541 (protein)
chain: MNTTDNGVNCLCAICGDRATGKHYGASSCDGCKGFFRRSIRKSHVYSCRFSRQCVVDKDKRNQCRYCRLRKCFRAGMKKEAVQNERDRISTRRSTFDGSNIPSINTLAQAEVRSRQISVSSPGSSTDINVKKIASIGDVCESMKQQLLVLVEWAKYIPAFCELPLDDQVALLRAHAGEHLLLGATKRSMMYKDILLLGNNYVIHRNSCEVEISRVANRVLDELVRPFQEIQIDDNEYACLKAIVFFDPDAKGLSDPVKIKNMRFQVQIGLEDYINDRQYDSRGRFGELLLLLPTLQSITWQMIEQIQFVKLFGMVKIDNLLQEMLLGGASNDGSHLHHPMHPHLSQDPLTGQTILLGPMSTLVHADQISTPETPLPSPPQGSGQEQYKIAANQASVISHQHLSKQKQL
B7: ZHX2, Q9Y6X8 (protein)
chain: MASKRKSTTPCMVRTSQVVEQDVPEEVDRAKEKGIGTPQPDVAKDSWAAELENSSKENEVIEVKSMGESQSKKLQGGYECKYCPYSTQNLNEFTEHVDMQHPNVILNPLYVCAECNFTTKKYDSLSDHNSKFHPGEANFKLKLIKRNNQTVLEQSIETTNHVVSITTSGPGTGDSDSGISVSKTPIMKPGKPKADAKKVPKKPEEITPENHVEGTARLVTDTAEILSRLGGVELLQDTLGHVMPSVQLPPNINLVPKVPVPLNTTKYNSALDTNATMINSFNKFPYPTQAELSWLTAASKHPEEHIRIWFATQRLKHGISWSPEEVEEARKKMFNGTIQSVPPTITVLPAQLAPTKVTQPILQTALPCQILGQTSLVLTQVTSGSTTVSCSPITLAVAGVTNHGQKRPLVTPQAAPEPKRPHIAQVPEPPPKVANPPLTPASDRKKTKEQIAHLKASFLQSQFPDDAEVYRLIEVTGLARSEIKKWFSDHRYRCQRGIVHITSESLAKDQLAIAASRHGRTYHAYPDFAPQKFKEKTQGQVKILEDSFLKSSFPTQAELDRLRVETKLSRREIDSWFSERRKLRDSMEQAVLDSMGSGKKGQDVGAPNGALSRLDQLSGAQLTSSLPSPSPAIAKSQEQVHLLRSTFARTQWPTPQEYDQLAAKTGLVRTEIVRWFKENRCLLKTGTVKWMEQYQHQPMADDHGYDAVARKATKPMAESPKNGGDVVPQYYKDPKKLCEEDLEKLVTRVKVGSEPAKDCLPAKPSEATSDRSEGSSRDGQGSDENEESSVVDYVEVTVGEEDAISDRSDSWSQAAAEGVSELAESDSDCVPAEAGQA

target: nucleoprotein N of Crimean-Congo hemorrhagic fever virus; test: AlphaScreen luminescence signal relative to Venus negative control (fold); higher = stronger binding to CCHFV N
Procedure: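 AlphaScreen binding of cell-free made, FLAG-GST-tagged human transcription factors and regulators (crude translation products) to biotinylated N protein; signal as fold of the FLAG-GST-Venus control. One pass.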

Binder	AlphaScreen luminescence signal
B1	2.28
B2	3.12
B3	1.81
B4	3.02
B5	3.07
B6	3.35
B7	2.09
